First the molecules themselves.
B1: CPEB3 Ribozyme (parent)
chain: UAACAGGGGGCCACAGCAGAAGCGUUCACGUCGCAGCCCCUGUCAGAUUCUGGUGAAUCUGCGAAUUCUGCUGUAUAUCUC

Read counts are not given, so values of variants with three or more changes are uncertain.

In this data set the parent is B1. Put plainly: self-cleavage, relative activity (ratio to wild type); higher = more cleavage; in vitro, sequencing. Put shortly: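 After error-prone PCR and barcoding, CPEB3 ribozyme mutant libraries were transcribed with T7 RNA polymerase at 37°C for 5 hours, then given 15 min with DNase I before an EDTA stop, and they cleaved during both steps. Reverse transcription with template switching preceded Illumina sequencing. Relative activity divides a variant's cleaved/total read fraction by the unmutated ribozyme's. At least 5 reads were required per variant, and three batches were averaged.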
On to A5U C23U U51C, for which the self-cleavage came out at 0.28. For A5U U48C U54C U69C U80C, the self-cleavage turned out to be 0.19. As for A5U U43A A56G U80C, the self-cleavage amounted to 0.91. The value for A5U U41C U69C was 0.61. Take A5U G10C A20G U25C A47U: the self-cleavage is 0.37. A5U C39A U69C U74C: the self-cleavage amounted to 0.11. Turning to A5U U31C U41C, the self-cleavage was determined as 0.78.

Turning to A5U A21G U78C, the self-cleavage turned out to be 0.63. For A5U G6A U25C U31C A65G A77G, the self-cleavage stood at 0.05. Take A5U G33A U67A U69C: the self-cleavage is 0.29. As for A5U G19U U41C U51A, the self-cleavage amounted to 0.21. As for A5U U48C G52A A75G, the self-cleavage amounted to 0.7. On to A5U U31C G61A U66C, for which the self-cleavage turned out to be 0.21. To A5U U25A U80A belongs 0.34; to A5U C12U A15U U26C U31C U66C A75U, 0.3; to A5U A47G U54C, 1.06. A5U U43A A47G A56U: the self-cleavage was determined as 0.51. As for A5U U25C A28U A35U A45G C62U U72C, the self-cleavage turned out to be 0.04. With A5U C17U G42U, the self-cleavage came out at 0.27. On to A5U G6A A28G C40U U48C U76C, for which the self-cleavage was 0.11. For A5U U43A A56G U58C, the self-cleavage turned out to be 0.27. The value for A5U G6U U41A U60C A65G was 0.07; that for A5U G8A C40G U54A A64G U66C was 0.04; that for A5U U31C U60A U67C was 0.22.

Turning to A5U U41C U54C A65G C81U, the self-cleavage was 0.41. For A5U U26A U48C U60A U72G, the self-cleavage is 0.3.

Regarding A5U C34A U69C, the self-cleavage was determined as 0.28.

As for A5U G7C C40U U76A, the self-cleavage turned out to be 0.26. The value for A5U A45U G73A U76A A77U was 1.46; that for A5U G30A U80C was 0.6; that for A5U C44U U54G was 0.15.

Consider A5U U26C A77G, for which the self-cleavage stood at 0.83.

Regarding A5U A65G A77U, the self-cleavage came out at 0.82.

Regarding A5U A47G U66G A77G U78C, the self-cleavage is 0.13.

For the variant A5U G10A A20G C23U U54A, the self-cleavage stood at 0.28. To A5U A47U A64G U78A belongs 0.58. The value for A5U G7A A18U U26C G53U was 0.25; that for A5U A21U A35G U43A was 1.18.

Regarding A5U C14U A64G, the self-cleavage came out at 1.17.

With A5U C29A A57G U58C, the self-cleavage turned out to be 0.28. In the case of A5U U25C A35G, the self-cleavage was found to be 0.38. The value for A5U U26C G33U was 0.1; that for A5U C29U A56G was 0.18; that for A5U U31A U41C G46A U48G was 0.11.

Turning to A5U U43C U74C U78C, the self-cleavage worked out at 0.36. The value for A5U G7A C40A was 0.33; that for A5U U41C A56G A57G was 0.36.

On to A5U G52U U54C, for which the self-cleavage stood at 1.19. Consider A5U A45G U54C G63A, for which the self-cleavage came to 0.97. Consider A5U G6C G16A A45G A65G, for which the self-cleavage amounted to 0.07. The value for A5U U41A A45U A64U C68U was 0.18; that for A5U U43A A75U was 1.19. The value for A5U C11G A13U U26A U69A was 0.11. The value for A5U C12A C17U U51A A57G was 0.41; that for A5U G10C A13C U41C was 0.61.

For the variant A5U U41C U51C, the self-cleavage was found to be 0.94.

Take A5U C12U U25A: the self-cleavage was 0.37. A5U U26A U60C: the self-cleavage came out at 0.37. To A5U G8U A77G belongs 0.21; to A5U U26C U72C, 0.8; to A5U U43A U66C, 0.22.

For the variant A5U U43C A56G, the self-cleavage is 0.34. The value for A5U U31A U41A U60C U69C U72A was 0.08.

With A5U A21G U49C U66C, the self-cleavage came out at 0.27. The value for A5U C32G U80C was 0.11. For the variant A5U G10A A45G, the self-cleavage is 0.61. To A5U U25A U26A U72C belongs 0.11.

As to A5U C44A A77G, the self-cleavage amounted to 0.51. To A5U C40A A47G belongs 0.31; to A5U U31C U67C U80C, 0.22; to A5U G70A U80A, 1.03. With A5U U43C A64U U72C U76C, the self-cleavage amounted to 0.19.

Consider A5U G24A C27A A35U A47U A56G, for which the self-cleavage came out at 0.2. The value for A5U U25C A28C A35G A64G C68U was 0.34; that for A5U C12A A13C A18G was 1.06. Take A5U A21G A64U: the self-cleavage was 0.08.

Turning to A5U A45U C79G, the self-cleavage worked out at 0.76. As to A5U A35C U43A, the self-cleavage is 0.88. Regarding A5U C38G C40G U48C, the self-cleavage was found to be 0.11. As to A5U G10A A45G U49C, the self-cleavage is 0.07. The value for A5U A35U U60A was 0.26. As to A5U G7U G10A A15G U54A, the self-cleavage turned out to be 0.32.

Turning to A5U C27A U60A U72C, the self-cleavage is 0.23. As for A5U C27U A56U U74C, the self-cleavage was 0.21.

The values above are taken from the RNAGym collection of RNA variant scans (doi:10.1093/nar/gkz1192).
